# Experimental data reported in publication PMC4336329 (PLoS ONE, 2015).
# About 14,000 (4.5%) of roughly 310,000 compounds showed an effect of 50% or more. The effect is printed as a negative number. This is one part of the list.
# Target: human ether-à-go-go-related gene (hERG) potassium channel (human, UniProt Q12809)
# Assay: primary screen, population patch clamp on CHO cells stably expressing hERG
# 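Further: peak tail current of the secondary pulse compared with the same well before compound.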
# Chain of human ether-à-go-go-related gene (hERG) potassium channel (Q12809 whole entry, looked up): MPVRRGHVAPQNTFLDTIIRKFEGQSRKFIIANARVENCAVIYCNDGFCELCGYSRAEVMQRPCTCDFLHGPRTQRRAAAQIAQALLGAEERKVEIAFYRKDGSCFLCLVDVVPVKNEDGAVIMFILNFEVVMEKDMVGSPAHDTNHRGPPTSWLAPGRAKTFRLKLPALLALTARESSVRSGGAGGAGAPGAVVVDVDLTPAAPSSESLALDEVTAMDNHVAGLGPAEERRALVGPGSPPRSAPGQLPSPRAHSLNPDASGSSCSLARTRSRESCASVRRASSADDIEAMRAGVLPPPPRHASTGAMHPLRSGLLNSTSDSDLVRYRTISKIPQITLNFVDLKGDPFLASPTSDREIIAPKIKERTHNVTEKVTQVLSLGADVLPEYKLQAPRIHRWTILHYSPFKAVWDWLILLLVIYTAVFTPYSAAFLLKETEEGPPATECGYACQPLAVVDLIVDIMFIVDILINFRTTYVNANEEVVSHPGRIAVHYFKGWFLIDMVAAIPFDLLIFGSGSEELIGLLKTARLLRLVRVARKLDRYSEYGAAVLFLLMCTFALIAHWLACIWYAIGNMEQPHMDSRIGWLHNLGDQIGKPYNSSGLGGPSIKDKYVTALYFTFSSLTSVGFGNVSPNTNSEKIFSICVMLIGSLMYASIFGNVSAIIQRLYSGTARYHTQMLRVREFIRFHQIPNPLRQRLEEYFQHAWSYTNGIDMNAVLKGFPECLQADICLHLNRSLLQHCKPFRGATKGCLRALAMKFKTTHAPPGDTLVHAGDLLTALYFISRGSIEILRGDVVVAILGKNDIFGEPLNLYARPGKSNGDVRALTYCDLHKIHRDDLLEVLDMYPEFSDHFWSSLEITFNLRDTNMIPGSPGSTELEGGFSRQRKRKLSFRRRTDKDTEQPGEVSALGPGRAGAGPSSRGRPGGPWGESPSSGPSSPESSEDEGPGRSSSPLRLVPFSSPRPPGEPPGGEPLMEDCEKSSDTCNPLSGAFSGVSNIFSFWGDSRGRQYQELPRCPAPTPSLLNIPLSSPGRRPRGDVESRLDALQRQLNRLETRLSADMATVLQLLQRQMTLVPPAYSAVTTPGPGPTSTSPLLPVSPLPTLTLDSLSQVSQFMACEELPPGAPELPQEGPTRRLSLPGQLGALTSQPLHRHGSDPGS
row,Structure (SMILES),"hERG current change (%, negative = inhibition) at 10uM [%]"
1,COc1ccccc1N1CCN(C(=O)CSc2nnc(-c3ccoc3C)o2)CC1,-30.5
2,CC(=O)N1CCCc2cc(S(=O)(=O)NC(C(=O)NCc3ccc(C)cc3)C(C)C)ccc21 (centres unmarked),-15.3
3,Cn1nnnc1SCC(=O)Nc1cc(C(F)(F)F)ccc1N1CCOCC1,-22.7
4,COc1ccc(CN2C(=O)CC(C(=O)NCCc3ccc(S(N)(=O)=O)cc3)SC2=Nc2ccccc2)cc1 (centres unmarked),28.7
5,COC(=O)c1c(NC(=O)COC(=O)c2ccccc2O)sc2c1CCCCC2,15.4
6,O=S(CCc1ccncc1)Cc1ccccc1 (centres unmarked),5.18
7,CCOC(=O)Cn1cnc2scc(-c3ccc(C)c(C)c3)c2c1=O,8.77
8,Cc1cccc(NC(=O)Cc2noc3ccccc23)c1,-5.99
9,O=C(NCC1(O)CCCCC1)C1CCC(=O)N(Cc2cccc(C(F)(F)F)c2)C1 (centres unmarked),-4.88
10,CC(C(=O)NCCc1nc2ccccc2[nH]1)n1cc([N+](=O)[O-])cn1 (centres unmarked),12.6
11,COC(=O)Cn1c(=NC(=O)CSCC(=O)NC2CCCCC2)sc2cc(OC)ccc21,1.61
12,O=C1CCC(C(=O)Nc2ccccc2N2CCCC2)=NN1,-38.9
13,S=C(Nc1ccc(Cl)cc1Cl)N1CCN(c2ccccn2)CC1,17.5
14,CC(C)C(=O)NC(=S)Nc1ccccc1C(F)(F)F,10.4
15,CC(C)OC(=O)c1cc(=O)[nH]c2ccccc12,5.48
16,CCOP(=O)(OCC)C(Nc1ccc(C(=O)O)cc1)c1ccccc1 (centres unmarked),33.4
17,Cc1ccc(NC(=O)CNC(=O)CC23CC4CC(CC(C4)C2)C3)c(O)c1,7.8
18,COc1ccc(CN2C(=O)C(Cc3ccccc3)Nc3ncnc(N4CCN(c5ccccc5)CC4)c32)cc1.O=C(O)C(F)(F)F (centres unmarked),9.01
19,Cc1cc(NC(=O)COC(=O)C2CC(=O)N(c3ccccc3)C2)no1 (centres unmarked),12.2
20,COc1ccccc1N(CCC#N)C(=O)CSc1ccc2c(c1)OCCO2,-17.9
21,CCn1c(C(=O)N2CCC(C(=O)NCc3ccc(OC)cc3)CC2)cc2sccc21,-41.9
22,Cn1c(SCCN2CCOCC2)nc2sc3c(c2c1=O)CCCC3,-0.959

row,Structure (SMILES),"hERG current change (%, negative = inhibition) at 10uM [%]"
1,O=C(Nc1ccc(Cl)cc1)c1ccc2snnc2c1,4.11
2,COc1ccccc1NC(=O)Nc1ccc(C(=O)N2CCCCC2)cc1,-5.42
3,O=c1[nH]c(=O)n(CCc2ccc(F)cc2)c(O)c1/C=N/N1CCCCC1,12.3
4,O=C(O)COc1ccccc1/C=N/NC(=O)c1ccc(F)cc1,4.02
5,Oc1ccc(/C=N/NC(=S)Nc2cccnc2)cc1,10.2
6,N#C/C(=C\c1cccs1)C(=O)N1CCOCC1,17.1
7,O=C(NCc1cccnc1)C(=O)NCC1OCCCN1S(=O)(=O)c1ccc(Cl)cc1 (centres unmarked),-2.01
8,O=C(CSc1ccc2ccccc2n1)Nc1nsc(-c2ccc(Cl)cc2)n1,-9.81
9,O=C(O)c1cccc(O)c1O,8.15
10,CCOC(=O)C1=NN(c2ccc(C)cc2)C2(S1)SC(C(C)=O)=C(C)N2c1ccccc1 (centres unmarked),12.5
11,Cc1onc(-c2ccccc2)c1CNS(=O)(=O)c1cccc(Br)c1,-0.969
12,Cc1ccc(C)c(S(=O)(=O)NCC(=O)Nc2sc3c(c2C(N)=O)CCC(C)C3)c1 (centres unmarked),17.7
13,Cc1cc(C)c(C(=O)COC(=O)C2CCN(c3ccc(C(F)(F)F)cn3)CC2)c(C)c1,8.61
14,O=C(c1ccc(Cl)cc1)C1CCCN(Cc2ccc3c(c2)OCCO3)C1 (centres unmarked),-73.5
15,Cc1ccn(C)c(=N)c1,23.1
16,COCCNC(=O)CSc1nc2ccc(N3CCOCC3)cc2c(=O)n1Cc1ccc(OC)cc1,-22.4
17,CCC(C)(C)NC(=O)C(c1ccc(F)cc1)N(Cc1cccc(OC)c1)C(=O)c1cnccn1 (centres unmarked),9.72
18,COc1ccccc1OCC(=O)NCc1ccco1,-12.1
19,C#CCNc1c2c(nc3ncnn13)CC(C)CC2 (centres unmarked),-10.7
20,CCN1CCN(C(=S)Nc2ccc(Cl)cc2Cl)CC1,7.51
21,Cc1ccccc1S(=O)Cc1ccc(C(=O)NC2CC2)o1 (centres unmarked),1.8
22,COc1cc(C(=O)NCC(c2cccnc2)N2CCN(C)CC2)cc(OC)c1OC (centres unmarked),12.9
